In the RNAGym collection of RNA variant scans (doi:10.1093/nar/gkz1192):
The source gives no read counts; variants with many changes may rest on few reads.

B1: CPEB3 Ribozyme (parent)
chain: UAACAGGGGGCCACAGCAGAAGCGUUCACGUCGCAGCCCCUGUCAGAUUCUGGUGAAUCUGCGAAUUCUGCUGUAUAUCUC

Variants of: B1
Experiment: self-cleavage, relative activity (ratio to wild type); higher = more cleavage; in vitro, sequencing
Method in brief: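 CPEB3 self-cleaving ribozyme mutant libraries were made by rounds of error-prone PCR, barcoded, and transcribed in vitro with T7 RNA polymerase for 5 hours at 37°C. Cleavage occurred during transcription and a 15 min DNase I step before EDTA stop. RNAs were reverse transcribed with template switching and Illumina-sequenced, with DNA sequencing mapping barcodes to variants. Relative activity is the variant's cleaved/total read fraction divided by wild type's (minimum 5 reads), averaged across three batches.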
With A5U U41A U78C the self-cleavage was 0.3.
Variant G6A C12U A15G U51C U60A A64U has a self-cleavage of 0.04.
A5U C12A G36A U72A gave a self-cleavage of 0.73.
A5U U54C U60C gave a self-cleavage of 0.53.
With A5U G9A U43A U51A the self-cleavage was 0.22.
G6U C14U U43C A45G A56G U69C G73A showed a self-cleavage of 0.04.
Variant G6A A18G G24A C40U U54G has a self-cleavage of 0.05.
Work on G6C U26A U48C U67A yielded a self-cleavage of 0.12.
G6A A56G U66C gave a self-cleavage of 0.45.
For G6A A21U U49C U67C, the self-cleavage was 0.11.
For G6U G9A A13U A21G A45G A64G, the self-cleavage was 0.05.
For G6A U43C G52A, the self-cleavage was 0.14.
A5U G7U A20G G30U U54A C71U U72A gave a self-cleavage of 0.04.
In the case of G6A A18U U25C A35G A45C, the self-cleavage is reported as 0.04.
Work on A5U C11U A15U U26C U67A yielded a self-cleavage of 0.2.
With A5U U31A G36U U41A A45U C68U the self-cleavage was 0.17.
Work on G6A G30A U72G yielded a self-cleavage of 0.09.
Work on G6A U51G A64G U69A U78C yielded a self-cleavage of 0.06.
In the case of G6A U26C U41A, the self-cleavage is reported as 0.25.
Variant G6U C12A U26A U51A A64G U72C has a self-cleavage of 0.08.
For G6A U31C C37U, the self-cleavage was 0.19.
G6A U69C U72C gave a self-cleavage of 0.14.
G6A A15U G30A A64G C68U G70A U80C showed a self-cleavage of 0.05.
G6A U25C U43G U48C showed a self-cleavage of 0.21.
In the case of G6A G9U U51C U67C, the self-cleavage is reported as 0.1.
With G6A U26C A56G U60C U72A the self-cleavage was 0.52.
In the case of A5U U41A U54C A77U, the self-cleavage is reported as 0.58.
In the case of G6A G19A G46A U69C, the self-cleavage is reported as 0.27.
A5U A56U A57G showed a self-cleavage of 0.49.
Variant A5U C12U U26C U76A has a self-cleavage of 0.93.
With A5U G10A U26C A28G U58C U80C the self-cleavage was 0.06.
For G6A U54C U67A U74A, the self-cleavage was 0.11.
Work on G6A A13G U41C A65G U80C yielded a self-cleavage of 0.1.
Work on A5U C27G U78C yielded a self-cleavage of 0.25.
G6C A15G U31A A64U U72G gave a self-cleavage of 0.1.
With G6U A45G G63A A65G U69A the self-cleavage was 0.07.
Variant G6C U26C U31C C40U C44A U48C has a self-cleavage of 0.26.
A5U U25C U43C U58C A77U U80A showed a self-cleavage of 0.1.
G6A A15U A21G A64U U78C showed a self-cleavage of 0.07.
A5U U43C U60G showed a self-cleavage of 0.18.
With A5U U51A U76C the self-cleavage was 0.84.
With G6A A35U C38U U43C U60A the self-cleavage was 0.06.
A5U U25A A28U U54C U60A A75U showed a self-cleavage of 0.08.
G6A A64U C81U showed a self-cleavage of 0.37.
A5U G10A A18U U72A showed a self-cleavage of 0.32.
G6A U49C A64C showed a self-cleavage of 0.15.
A5U A45G A56G C62U U76A showed a self-cleavage of 0.43.
Variant G6A G10A A45U U48A U72A has a self-cleavage of 0.07.
G6A C12G U25C A47G A64U gave a self-cleavage of 0.07.
Work on A5U G9U U25C A35U C38U U51A A56G yielded a self-cleavage of 0.14.
With A5U G9C U25A U76G the self-cleavage was 0.06.
In the case of A5U U66C U72A A75U, the self-cleavage is reported as 0.27.
For A5U U67A U72C, the self-cleavage was 0.13.
With G6A A20U C40U U80C the self-cleavage was 0.22.
In the case of A5U U51A U54C, the self-cleavage is reported as 1.22.
For A5U U41C U48C G52A U67C, the self-cleavage was 0.41.
In the case of G6A U25C U26A U48C U69C, the self-cleavage is reported as 0.07.
With G6C U54A U69A the self-cleavage was 0.22.
With A5U U26C A45C A64U U67C the self-cleavage was 0.21.
For G6U G8U G42A A45U A56U A64U, the self-cleavage was 0.1.
G6U A28G G70A U76A gave a self-cleavage of 0.12.
For G6A U48G A65G U76A U78A, the self-cleavage was 0.04.
A5U U49C G53A showed a self-cleavage of 0.33.
A5U G7C C17U U31A U69C gave a self-cleavage of 0.06.
In the case of A5U A64G U69C, the self-cleavage is reported as 0.59.
For G6A A15U U43C U76A A77U, the self-cleavage was 0.04.
In the case of A5U G7C G8A A20G U67C G70C, the self-cleavage is reported as 0.26.
For G6U G8A C37U A45G U54C U74G, the self-cleavage was 0.07.
For A5U U49C U51C A56U U80C, the self-cleavage was 0.49.
In the case of G6A A57U A64U U72C, the self-cleavage is reported as 0.13.
For A5U G7A A18U U26C A35G U43C U54C, the self-cleavage was 0.35.
Variant G6C A21G U72A has a self-cleavage of 0.07.
Variant G6U G16A A21G has a self-cleavage of 0.36.
A5U G24A A28U U51A A65G U72C showed a self-cleavage of 0.1.
With A5U A35U A65G the self-cleavage was 0.25.
A5U C29U U41C A47G A56U U76A showed a self-cleavage of 0.09.
For G6A A28U A64G, the self-cleavage was 0.14.
G6C A13G A28G U67C showed a self-cleavage of 0.31.
G6A U26A U60A C62U gave a self-cleavage of 0.05.
Variant A5U U41A U60A A64G has a self-cleavage of 0.12.
A5U G22A A28G showed a self-cleavage of 0.37.
With G6A U31C C40U the self-cleavage was 0.35.
Work on G6A C12U U67C yielded a self-cleavage of 0.08.
Variant G6A G53C U60A G61U has a self-cleavage of 0.11.
